Test results published in the RNAGym collection of RNA variant scans (doi:10.7554/elife.90254).
The source gives no read counts; variants with many changes may rest on few reads.

B1: LINE1-mini (parent)
chain: GGCAGAGCUCAACACAGCGUGGCAAAGUGGCUGUGGCUAGACUGCC

Variants of: B1
Assay: self-cleavage, relative activity (ratio to wild type); higher = more cleavage; in vitro, sequencing; the parent is a self-cleaving ribozyme

Variant	self-cleavage
GGCAUAGCUCAACACAGCGUGACAAAGAGGCUGUGGCUAGAUUGCC [G5U G22A U28A C42U]	0.03
GGCAUAGCUCAACACAGCCUGGUAAAGUGGCUGUGGCUAGACUGCC [G5U G19C C23U]	0.05
GGCAUAGCUCAACACAGCGUAGGAAAGGGGCUGUGGCUAGACUGCC [G5U G21A C23G U28G]	0
GGCAUAUCUCAACACAGCGUGGCAAAGGGGCUGUUGCUGGACUGCC [G5U G7U U28G G35U A39G]	0
GGCAUAGCUCAACACAGCAUGGCAAAGUGGCUGUGGCUAGUCUGCC [G5U G19A A41U]	0.33
GGCAUAGCUCAACACAGCGUCGCAAAGUGGCUGAGGCUAAACUGCC [G5U G21C U34A G40A]	0.04
GGCAUAGCUCAACACACCGUGGCAAAGUUGGUGUGGCUAGACUGCC [G5U G17C G29U C31G]	0.01
GGCAUAGCUCAACACAGCGUACCAAACUGGCUGUGGGUAGACUGCC [G5U G21A G22C G27C C37G]	0.02
GGCAUAGCUCAACACAGCAUGGCAAAGUGGCUGUGGCUAGACUGUC [G5U G19A C45U]	0.13
GGCAUAGCUCAACACAACGUGGCAAAAUGGCUGUGGGUAGACUGCC [G5U G17A G27A C37G]	0.88
GGCAUAGCUCAACACAGCGUGGCAAAUUAGCUGUGGCUAGACUGCC [G5U G27U G29A]	0.02
GGCAUAGCUCAACACAGCGUGGCAAACUGGCGGUGGCUAGCCUGCC [G5U G27C U32G A41C]	0.03
GGCAUAGCUCAACACAGCGUGGCAAAUUGGCGGUGGCUAGACUGCC [G5U G27U U32G]	0.02
GGCAUAGCUCAACACAGCGUGCCAAAGUGGAUGUGCCUAGACUGCC [G5U G22C C31A G36C]	0.05
GGCAUAUCUCAACACAGCGUGGCAAAGUCGCUGUGGCUAGACUGCC [G5U G7U G29C]	0.04
GGCAUAGCUCAACACAGCGUGGCAAAUUGGCUGGGGCUAGAGUGCC [G5U G27U U34G C42G]	0.03
GGCAUAGCUCAACACAGCGUGGCAAAGUGGCUCUGGCUGGACUGCC [G5U G33C A39G]	0.02
GGCAUAGCUCAACACAGCUUGGGAAAGUGGCGGUGGCUAGACUGCC [G5U G19U C23G U32G]	0.19
GGCAUAGCUCAACACAGCGUUGCAAAGCGGCUGUGGCUAGACUGCC [G5U G21U U28C]	0.07

Variant	self-cleavage
GGCAUAGCUCAACACAUCGUGGCAAAGUCGCUGUCGCUAGACUGCC [G5U G17U G29C G35C]	0.03
GGCAUAGCUCAACACAGCUUGGCAAAGUGGCUGUGGCUAGACUCCC [G5U G19U G44C]	0.05
GGCAUAGCUCAACACAGCGUGGCAAACUGGCUGUGGCUAGACUGCA [G5U G27C C46A]	0.11
GGCAUAGCUCAACACAGCGUCGCACAGUAGCUGUGGCUAGACUGCC [G5U G21C A25C G29A]	0.05
GGCAUAGCUCAACACAGCCUGGCAACGUUGCUGUGGCUAGACUGCC [G5U G19C A26C G29U]	0.01
GGCAUACCACAACAGCGCGUGGCAAAGUGGCUCUGGCAAGACUGCC [G5U G7C U9A C15G A16C G33C U38A]	0.07
GGCAUAGCUCAACACAGCGUGGCAAAGUACCUGAGGCUAGACUGUC [G5U G29A G30C U34A C45U]	0.02
GGCAUAGCUCAACACAGCGUGGCAAAUUGGCUGUGGGUAGACUGCC [G5U G27U C37G]	0.11
GGCAUAUCUCAACACAGCGUGGCAAAGUGGCUGUGGCUCGACUUCA [G5U G7U A39C G44U C46A]	0.08
GGCAUAGCUCAACACAGCGUGGCAAAGUGACUUUGGCUAGACUGCC [G5U G30A G33U]	0.04
GGCAUACCGCAACACAGCGUGGCAAAGUGGCUGUGGCGACACUGCC [G5U G7C U9G U38G G40C]	0.05
GGCAUAGCUCAACACAGCGUGGCAAAGUGACUGUGGCUAGUCUGCC [G5U G30A A41U]	0.04
GGCAUAGCUCAACACAGCCUGGCAAAGUGGCUCUGGCUUGACUGCC [G5U G19C G33C A39U]	0.02
GGCAUAGCUCAACACAGCGUGGCAAAGUGGCUUUGGAUAGACUGCC [G5U G33U C37A]	0.1
GGCAUAGCUCAACACAGCGUGUCAAAGAGGCUGUGGCUAGGCUACC [G5U G22U U28A A41G G44A]	0.04
GGCAUAGCUCAACACAUCGUCGCAAAGUGGCUGUGGCUAGACUGCC [G5U G17U G21C]	0.1
GGCAUAGCUCAACACAGCAUGGCAAAGUGGCUGUGGUUAGACUGUC [G5U G19A C37U C45U]	0.03
GGCAUAGCUCAACACAGCGUGACAAAGUGGCUGUGGCUAGACUGCA [G5U G22A C46A]	0.02
GGCAUAUGUCAACACAGCGUGGCAAAGUGGCUGUGGCUAGACUACC [G5U G7U C8G G44A]	0.1

Variant	self-cleavage
GGCAUAGCUCAACACAGCGUGACAAACUGGCUGUGGCUAGACUGCC [G5U G22A G27C]	0.03
GGCAUAGCUCAACACAGCGUGACAAAAUGGCUGUGGCUAGACUGCC [G5U G22A G27A]	0.03
GGCAUAGCUCAACACAGCGUUGCAAAGUGGCUGUUGCUAGACUGCC [G5U G21U G35U]	0.04
GGCAUAGCUCAACACAUCAUCGCAAAGUGGCUGUGGCUAGACUGCC [G5U G17U G19A G21C]	0
GGCAUAGCUCAACACAGCGUUGCAAAGUGGCUGUGGCUUGACUGCC [G5U G21U A39U]	0.06
GGCAUAGCUCAACACAGCGUGGCAAAAUGGCUGUGGCUAGAAUGCC [G5U G27A C42A]	0.07
GGCAUAGCUCAACACAUCGUGGCAAAGUGGGUGUGGCUAGACUGCC [G5U G17U C31G]	0.07
GGCAUAGCUCAACACAGCGUGGCAAAGUGGCUUUGGCUAGAGUGCG [G5U G33U C42G C46G]	0.07
GGCAUAGCUCAACACAACGUGGCAAAGUGGCUCUGGCUAUACUGCC [G5U G17A G33C G40U]	0.01
GGCAUAGCUCAACACAACGAGGCAAAGUGGCUGUGGCUAUAUUGCC [G5U G17A U20A G40U C42U]	0
GGCAUAGCUCAACACAACUCGGCAAAGUCGCUGUGUCUAGAAUGAC [G5U G17A G19U U20C G29C G36U C42A C45A]	0.02
GGCAUAGCUCAACACAGCGUGACAAAGAGGCUGUGGCUUGACUUCC [G5U G22A U28A A39U G44U]	0.05
GGCAUAUAUCAACACAGCGUGGCAAAGUAGCUGUGGCAAGACUGCC [G5U G7U C8A G29A U38A]	0.25
GGCAUAUCUCAGCACAGCAUGGCAAAGUGGCUGUGGCUAGACUGCA [G5U G7U A12G G19A C46A]	0.01
GGCAUAGCUCAACACAACGUAGCAAAGUGACCGUGACGAGUCUGCC [G5U G17A G21A G30A U32C G36A U38G A41U]	0.01
GGCAUAUCUCAACACAGCGUGGCAAAAUGGCUGUGGCUAGACUGCC [G5U G7U G27A]	0.08
GGCAUAGCUCAACACAGCAUGGCAAAGUGGCUGUCGCUAGACUGCG [G5U G19A G35C C46G]	0.04
GGCAUAGCUCAACACAGCGUGGCAAAUUGGCUUUCGCUAGACUGCU [G5U G27U G33U G35C C46U]	0.03
